Measurements: the supplement of paper PMC4604168 (melanoma cell lines)
This is one part of the list. Most values come without repeats; read them as rough.

tested on: MeWo; assay: cell count relative to DMSO control; melanoma cells; higher = more viable cells; conditions: library dose: low library concentration; 72 h
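Note: cell number obtained by counting DAPI-stained nuclei in high-throughput microscope images with image analysis software, screen run in 1,536-well plates.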

| SMILES | cell count [%] |
| --- | --- |
| O=C(/C=C/c1cccnc1)NCCCCC1CCN(C(=O)c2ccccc2)CC1 + Cc1cn(-c2cc(NC(=O)c3ccc(C)c(Nc4nccc(-c5cccnc5)n4)c3)cc(C(F)(F)F)c2)cn1 [nilotinib] (first compound 0.01 µM, partner dose 0.2 µM) | 101 |
| Cc1ccc(Nc2nccc(N(C)c3ccc4c(C)n(C)nc4c3)n2)cc1S(N)(=O)=O [Pazopanib] + NC(=O)c1ccc(N(C(N)=O)c2c(F)cccc2F)nc1-c1ccc(F)cc1F [VX702] (first compound 0.4 µM, partner dose 0.4 µM) | 118 |
| Cc1ccc(Nc2nccc(N(C)c3ccc4c(C)n(C)nc4c3)n2)cc1S(N)(=O)=O [Pazopanib] + O=C(O)c1ccc(-c2c[nH]c3ncc(-c4ccccc4)cc23)cc1C1CCCC1 [GSK650394] (first compound 0.4 µM, partner dose 0.16 µM) | 92.8 |
| CC1(C)CCC(c2ccc(Cl)cc2)=C(CN2CCN(c3ccc(C(=O)NS(=O)(=O)c4ccc(N[C@H](CCN5CCOCC5)CSc5ccccc5)c(S(=O)(=O)C(F)(F)F)c4)cc3)CC2)C1 + Nc1nc(F)nc2c1ncn2[C@@H]1O[C@H](CO)[C@@H](O)[C@@H]1O [fludarabine] (first compound 0.4 µM, partner dose 0.2 µM) | 15.1 |
| Cc1ccc(Nc2nccc(N(C)c3ccc4c(C)n(C)nc4c3)n2)cc1S(N)(=O)=O [Pazopanib] + Cc1nc(Nc2ncc(C(=O)Nc3c(C)cccc3Cl)s2)cc(N2CCN(CCO)CC2)n1 [dasatanib] (first compound 0.4 µM, partner dose 0.004 µM) | 93 |
| CC1(C)CCC(c2ccc(Cl)cc2)=C(CN2CCN(c3ccc(C(=O)NS(=O)(=O)c4ccc(N[C@H](CCN5CCOCC5)CSc5ccccc5)c(S(=O)(=O)C(F)(F)F)c4)cc3)CC2)C1 + Cn1c(Nc2ccc(C(F)(F)F)cc2)nc2cc(Oc3ccnc(-c4ncc(C(F)(F)F)[nH]4)c3)ccc21 [CHIR265] (first compound 0.4 µM, partner dose 0.08 µM) | 39.1 |
| CC1(C)CCC(c2ccc(Cl)cc2)=C(CN2CCN(c3ccc(C(=O)NS(=O)(=O)c4ccc(N[C@H](CCN5CCOCC5)CSc5ccccc5)c(S(=O)(=O)C(F)(F)F)c4)cc3)CC2)C1 + C=C(c1ccc(C(=O)O)cc1)c1cc2c(cc1C)C(C)(C)CCC2(C)C [Bexarotene] (first compound 0.4 µM, partner dose 2 µM) | 72.3 |
| CC1(C)CCC(c2ccc(Cl)cc2)=C(CN2CCN(c3ccc(C(=O)NS(=O)(=O)c4ccc(N[C@H](CCN5CCOCC5)CSc5ccccc5)c(S(=O)(=O)C(F)(F)F)c4)cc3)CC2)C1 + Cc1cn(-c2cc(NC(=O)c3ccc(C)c(Nc4nccc(-c5cccnc5)n4)c3)cc(C(F)(F)F)c2)cn1 [nilotinib] (first compound 0.4 µM, partner dose 0.2 µM) | 71.2 |
| Cc1ccc(Nc2nccc(N(C)c3ccc4c(C)n(C)nc4c3)n2)cc1S(N)(=O)=O [Pazopanib] + CO[C@H]1C[C@@H]2CC[C@@H](C)[C@@](O)(O2)C(=O)C(=O)N2CCCC[C@H]2C(=O)O[C@H]([C@H](C)C[C@@H]2CC[C@@H](OCCO)[C@H](OC)C2)CC(=O)[C@H](C)/C=C(\C)[C@@H](O)[C@@H](OC)C(=O)[C@H](C)C[C@H](C)/C=C/C=C/C=C/1C [everolimus] (first compound 0.4 µM, partner dose 0.02 µM) | 69.4 |
| Cc1ccc(Nc2nccc(N(C)c3ccc4c(C)n(C)nc4c3)n2)cc1S(N)(=O)=O [Pazopanib] + Cn1nnc2c(C(N)=O)ncn2c1=O [temozolomide] (first compound 0.4 µM, partner dose 2 µM) | 111 |
| CC1(C)CCC(c2ccc(Cl)cc2)=C(CN2CCN(c3ccc(C(=O)NS(=O)(=O)c4ccc(N[C@H](CCN5CCOCC5)CSc5ccccc5)c(S(=O)(=O)C(F)(F)F)c4)cc3)CC2)C1 + COc1ccc(C2=N[C@@H](c3ccc(Cl)cc3)[C@@H](c3ccc(Cl)cc3)N2C(=O)N2CCNC(=O)C2)c(OC(C)C)c1 [Nutlin-3] (first compound 0.4 µM, partner dose 0.1 µM) | 71.2 |
| Cc1ccc(Nc2nccc(N(C)c3ccc4c(C)n(C)nc4c3)n2)cc1S(N)(=O)=O [Pazopanib] + CNC(=O)c1cc(Oc2ccc(NC(=O)Nc3ccc(Cl)c(C(F)(F)F)c3)cc2)ccn1 [sorafenib] (first compound 0.4 µM, partner dose 0.4 µM) | 102 |
| CC1(C)CCC(c2ccc(Cl)cc2)=C(CN2CCN(c3ccc(C(=O)NS(=O)(=O)c4ccc(N[C@H](CCN5CCOCC5)CSc5ccccc5)c(S(=O)(=O)C(F)(F)F)c4)cc3)CC2)C1 + C=CCNC1=C2C[C@@H](C)C[C@H](OC)[C@H](O)[C@@H](C)/C=C(\C)[C@H](OC(N)=O)[C@@H](OC)/C=C\C=C(/C)C(=O)NC(=CC1=O)C2=O [Tanespimycin] (first compound 0.4 µM, partner dose 0.002 µM) | 67.7 |
| O=C(/C=C/c1cccnc1)NCCCCC1CCN(C(=O)c2ccccc2)CC1 + NCC(=O)Nc1ccc(-n2nc(C(F)(F)F)cc2-c2ccc3c(ccc4ccccc43)c2)cc1 [OSU03012] (first compound 0.01 µM, partner dose 1 µM) | 55.8 |
| CC1(C)CCC(c2ccc(Cl)cc2)=C(CN2CCN(c3ccc(C(=O)NS(=O)(=O)c4ccc(N[C@H](CCN5CCOCC5)CSc5ccccc5)c(S(=O)(=O)C(F)(F)F)c4)cc3)CC2)C1 + CCCS(=O)(=O)Nc1ccc(F)c(C(=O)c2c[nH]c3ncc(Cl)cc23)c1F [PLX4720] (first compound 0.4 µM, partner dose 0.08 µM) | 70.4 |
| CC1(C)CCC(c2ccc(Cl)cc2)=C(CN2CCN(c3ccc(C(=O)NS(=O)(=O)c4ccc(N[C@H](CCN5CCOCC5)CSc5ccccc5)c(S(=O)(=O)C(F)(F)F)c4)cc3)CC2)C1 + Nc1cccc2c1CN(C1CCC(=O)NC1=O)C2=O [lenalidomide] (first compound 0.4 µM, partner dose 1 µM) | 76.8 |
| Cc1ccc(Nc2nccc(N(C)c3ccc4c(C)n(C)nc4c3)n2)cc1S(N)(=O)=O [Pazopanib] + C=CCn1c(=O)c2cnc(Nc3ccc(N4CCN(C)CC4)cc3)nc2n1-c1cccc(C(C)(C)O)n1 [MK1775] (first compound 0.4 µM, partner dose 0.02 µM) | 102 |
| O=C(/C=C/c1cccnc1)NCCCCC1CCN(C(=O)c2ccccc2)CC1 + Nc1nc(F)nc2c1ncn2[C@@H]1O[C@H](CO)[C@@H](O)[C@@H]1O [fludarabine] (first compound 0.01 µM, partner dose 0.2 µM) | 53.9 |
| CC1(C)CCC(c2ccc(Cl)cc2)=C(CN2CCN(c3ccc(C(=O)NS(=O)(=O)c4ccc(N[C@H](CCN5CCOCC5)CSc5ccccc5)c(S(=O)(=O)C(F)(F)F)c4)cc3)CC2)C1 + CS(=O)(=O)CCNCc1ccc(-c2ccc3ncnc(Nc4ccc(OCc5cccc(F)c5)c(Cl)c4)c3c2)o1 [lapatinib] (first compound 0.4 µM, partner dose 0.8 µM) | 55.1 |
| Cc1ccc(Nc2nccc(N(C)c3ccc4c(C)n(C)nc4c3)n2)cc1S(N)(=O)=O [Pazopanib] + Nc1cccc2c1CN(C1CCC(=O)NC1=O)C2=O [lenalidomide] (first compound 0.4 µM, partner dose 1 µM) | 106 |
| Cc1ccc(Nc2nccc(N(C)c3ccc4c(C)n(C)nc4c3)n2)cc1S(N)(=O)=O [Pazopanib] + COC(=O)c1sccc1S(=O)(=O)Nc1ccc(Nc2ccccc2)cc1OC [GSK0660] (first compound 0.4 µM, partner dose 1 µM) | 115 |
| O=C(/C=C/c1cccnc1)NCCCCC1CCN(C(=O)c2ccccc2)CC1 + CN1CCN(c2ccc3nc(-c4c(N)c5c(F)cccc5[nH]c4=O)[nH]c3c2)CC1 [Dovitinib] (first compound 0.01 µM, partner dose 0.1 µM) | 90 |
| CC1(C)CCC(c2ccc(Cl)cc2)=C(CN2CCN(c3ccc(C(=O)NS(=O)(=O)c4ccc(N[C@H](CCN5CCOCC5)CSc5ccccc5)c(S(=O)(=O)C(F)(F)F)c4)cc3)CC2)C1 + Cn1nnc2c(C(N)=O)ncn2c1=O [temozolomide] (first compound 0.4 µM, partner dose 2 µM) | 74.2 |
| O=C(/C=C/c1cccnc1)NCCCCC1CCN(C(=O)c2ccccc2)CC1 + Nc1cccc2c1CN(C1CCC(=O)NC1=O)C2=O [lenalidomide] (first compound 0.01 µM, partner dose 1 µM) | 115 |
